Measurements taken from the RNAGym collection of RNA variant scans (doi:10.7554/elife.90254).
The source gives no read counts; variants with many changes may rest on few reads.

B1: LINE1-mini (parent)
chain: GGCAGAGCUCAACACAGCGUGGCAAAGUGGCUGUGGCUAGACUGCC

Variants of: B1
Assay: self-cleavage, relative activity (ratio to wild type); higher = more cleavage; in vitro, sequencing; the parent is a self-cleaving ribozyme

Row | Variant | self-cleavage
1 | GGCAGAGCUCAACACAGAGUGGCAAAGUGGCUAUGGCUAGCCUGCC | 0.03
2 | GGCAGAGCUGAACACCACGUGGCAAAGUGGCUGUGGCUAGACUGCC | 0.01
3 | UGCAGAGAUCAAUACAGCGUGGCAAAGUGGCUGUGGCUAGCCUGAU | 0.11
4 | GGCAGAGCAGAACACAGCGUGGCAAUGUGGCUGUGGCUAGAAUGCC | 0.01
5 | GGCAGAACUCAACACAGCGUGGCAAAGUGGCUGUGGAUACACUGCC | 0.12
6 | GGCAGAGCUCAACACAGCGUGGCAAAGUGGCUGCGGCAAGCCUGCA | 0.01
7 | GGCAGAGAUCAACACGGCGUGGCAAAGUGACUGUGGCUAGACUGCC | 0.08
8 | GGCAAAGCUCAACACAGCGUGGCAAAGCAGCUGUAGCUAGACUGCC | 0.09
9 | GGCAGAGCUCAUCACAGCGUGGCAAAGCGGCUAUGGCUAGAGUGCC | 0.02
10 | GGCAGAGCUCAACUCAGCGUGGCAUAGUGGCUGUGGCUUGACUGCC | 0.14
11 | GGCAGAGGUCAACUCAGCGUGGCAAAGUGGCUGUGGCUUGACUGCC | 0.1
12 | GGCAGUACUCAACACAGCGUGGCAUAGUGGCUGUGACUAGGCCGCC | 1.04
13 | GGCAUAGCUCAAAACAGGGUGGCAAAGUGGCUGUGGCUAGACUGCC | 0.54
14 | UGCAUAGCUCAACCCAGCGUGGCAAAGUGGCUGUGGCUAGACUGCC | 0.06
15 | GGCAGAGCUCAACACCGCGUGGCAAAUUGGCUGAGGCUAGAUUGCC | 0.02
16 | GGCAGAGCUCAACACAGCGUGGGAAAGUGGAUGUGGCUAGACUGCA | 0.1
17 | GGAAGAGCUCAACACAGCGUGGUAAAGUGGCUGUGGCUAGAUUGCC | 0.18
18 | GGCAGUGCUCAACCCAGCGUGGCAAAGUGGCUGUGGUUUGCCUGCC | 0.01
19 | GGCAGAGCUCAACAGAGCGUGGUAAAGUAGCUGUGGCUACACUGCC | 0.04

Row | Variant | self-cleavage
20 | GGCAGAGCUCAACACAGCGUGCCAAAGUGGCUGUGGCUAGAAUCCC | 0.02
21 | GGCAGAGCUCAAAAAAGCGUGGAAAAGUGGCUGUGGCUAGACUGCC | 0.05
22 | GGCAAAACUCCAGAUAGCGUGGCAAAGUGGCUUUGGUCAGACUGCC | 0.02
23 | GGCAGAGCUAAACAGAGCGUGGCAAAGUGGCUGUCGCUAGACUGCC | 0.01
24 | GGCAGAGCUCAACACAGCGUGGCAAACUGGCUGUGGCUAUACUGAC | 0.06
25 | GGCAGUGCUCAACACAGCGCGGCAAAGUGGCUGUGGCUAAACUGCC | 0.34
26 | GGCAGAGCACAACAUAGCGUGGCAAAGUGGCUGUGGAUAGACUGCC | 0.52
27 | GGCAGAGGUCAACACAGCGUGGCAAAGUGGCGGUGGCUAGAGUGCC | 0.01
28 | GGCAGAACUCAACACAGCCAGGCAAAGUGGCGGUGGCUAGAGUGCC | 0.02
29 | GGCAGAGCUCAACACAGAGUGGCAAAGUGGCAUUGGCUGGUCUGCC | 0.02
30 | GGCACAGCUCAACACAGCGUGGCAACGUGGCUAUGGCUAGACUGCC | 0.01
31 | GGCAGAGCUCAACACAGUGUGGCAAUGUGGCUGUGGCUACACUGCC | 0.04
32 | GGCAUAGCUCAACACCGCCUGGCAAAGUGGCUGUGGCUAGACUGCC | 0.05
33 | GGCAGAGCUCAAAAGAGCGUGGCAAAGUGGCUGUCGCUUGAAUUCC | 0.54
34 | GGCCGAGUUCAACACAGUGUGGCAAAGUGGCUGUCGUUAGACUGCC | 0.07
35 | GGCAGAGCUCAACUCACCGUGGCAAAGUGGCUGUGGCUAUACUGCC | 0.05
36 | GGCUGGGCUCAACACAGCGUGACAAAAUGGCUGUGGCUAUACUGCC | 0.02
37 | GGCAGAACUCAACACAGGGUGGCAAAGUGGCUGUGGCUAGACUUCC | 0.02
38 | AGCAGAGCUCAACACACCGUGGCCAAGUGGCUGUGGCAAGACUGCC | 0.04

Row | Variant | self-cleavage
39 | GGCACAGCUCAACACAGCGUGGCCAAGUGGCUGUGUCUAGACUGCC | 0.03
40 | GGCAGAGCUCUACACCGCGUGACAAAGUGGCUGUGGCUAGACUGCC | 0.01
41 | CGCAGAGCUCAACACAGCGAGGCAAAGUGGCUGUGGCUAGAGUGCC | 0.01
42 | GGCAGGGCUCAACACAGCGUGGCAAGGUGGCUGUGGCUAGACUGCU | 0.05
43 | GGCAGAGCUCAACAAAGCGUGGCAAAGUGGCUGACGCUAGACUGCC | 0.09
44 | GGCUGAGCUCAACACAGCGUGGCAAAGUGGCUGUGGUUAGACUGGC | 0.01
45 | GGCAGAACUCAACACAGCGAGCCAAGCUGGCUGUGGAUAGACUGCC | 0.01
46 | GGCAGCGCUCAACACAGCGUGGCAAAGUGGCUGUGGCUAGACAACC | 0.01
47 | GGCAGAACUCAACACAGUGUGGCAAAGUGGCUGGGGCUAGACUGCC | 0.04
48 | GGCACAGCUUAACACAACGUGGCAAAGUGGCUGUGGCUAGACUGCC | 0.02
49 | GGCAGAGCUCAACACAGCGUGGCAAAGUGGAUAUGGCUAGACUACC | 0.07
50 | CGCAGAGCUAAACACAGCGUGGCAAAGUGGCUGUGGCUAGACAGCC | 0
51 | GGCAGAGCUCAACACAGCGUGGCAAAGGGGCUGUGACUAGACAGCC | 0.04
52 | GGCAGAGCUUCACACAGCGUGGCAAAGUGGCUGUGGCUAGACCGCC | 0.06
53 | GGCAGAGCUCAAUACAGCGUGGCAAAGUGGCUGUGGUUAGGCUGCC | 0.06
54 | GGUAGAGCUCAACACAGCGUGGCAAAGACGCUGUGGCUAGACUGCC | 0.12
55 | CGCAGAGCUCAACACAGCAUGGCAAAGUAGCUGUGGCUAGGCUGCC | 0.03
56 | GGCCGAGCUCAACACAGCGUGGCAAAGUGGCUGUGGCUAGCAUGCC | 0.07
